Test results as given in ChEMBL document CHEMBL1201862, “PubChem BioAssay data set” (2004).
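Test compounds were applied to cells in 96-well plates for 48 hours at 5 doses. Abbreviation: GI50, concentration required for 50% inhibition of growth.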 Activity calls are given as the source filed them. No stated cut-off is given here; in the data, active = GI50 up to about 1.1 µM and inactive = higher.

tested on: NCI-H322M; assay: DTP human tumour cell line panel, 48 h

Row | SMILES | GI50
1 | Cc1cc(O)c2c(=O)c3ccccc3[nH]c2c1 | inactive: 42.6 µM
2 | CCOC(=O)COc1cc(-c2ccccc2F)nc2cc3c(cc12)OCO3 | inactive: > 100 µM
3 | CNC(=O)OCc1nc(SSC(C)(C)C)n(C)c1COC(=O)NC | inactive: 16 µM
4 | CCC1NC(=O)C(NC(=O)c2ncccc2O)C(C)OC(=O)C(c2ccccc2)NC(=O)C2CC(=O)CCN2C(=O)C(Cc2ccccc2)N(C)C(=O)C2CCCN2C1=O (configuration not stated) | inactive: > 100 µM
5 | Cc1cn2c(/C=N/NC(=N)N)c(-c3cc([N+](=O)[O-])c(Cl)cc3Cl)nc2s1 | inactive: 2.1 µM
6 | CC1=NN(C(=O)Nc2ccccc2)C(=O)C2CCC(=O)N12 (configuration not stated) | inactive: > 100 µM
7 | COc1cc(/C=C/c2csnn2)cc(OC)c1OC | inactive: > 100 µM
8 | O=C(NCCCNCCN1C(=O)c2cccc3cc([N+](=O)[O-])cc(c23)C1=O)c1cc(-c2ccccc2)nc2ccccc12 | inactive: 2.58 µM
9 | CCCc1[nH]nc(C(N)=O)c1/N=N/N(C)C | inactive: > 100 µM
10 | N#CCCN(CCN(C(=O)Nc1ccccc1)c1ccccc1)C(=O)Nc1ccccc1 | inactive: > 100 µM
11 | Cc1ccc([S+]([O-])c2sccc2C=O)cc1 (configuration not stated) | inactive: 50.5 µM
12 | N=C(N)SCCc1ccccn1 | inactive: > 100 µM
13 | CC(=O)O[C@H]1C(=O)[C@@]2(C)[C@H]([C@H](OC(=O)c3ccccc3)[C@]3(O)C[C@H](OC(=O)[C@H](O)[C@@H](NC(=O)c4ccc(N)cc4)c4ccccc4)C(C)=C1C3(C)C)[C@]1(OC(C)=O)CO[C@@H]1C[C@@H]2O | active: < 0.005 µM
14 | COc1ccc(/C=C2\C[C@H]3[C@@H]4CCC5=C/C(=N/O)CC[C@]5(C)[C@H]4CC[C@]3(C)\C2=N\O)cc1 | inactive: 10.1 µM
15 | CC12O[C@H](c3ccccc3)[C@H](c3ccccc3)N1C(=O)C1(C(=O)OCc3ccccc3)CC12 (some centres not stated) | inactive: > 100 µM
16 | O=C1CSC(c2cccc(Cl)c2)N1c1ccc(-c2ccc(-n3c(-c4ccccc4)nc4ccccc4c3=O)cc2)cc1 (configuration not stated) | inactive: > 100 µM
17 | N#CCC(=O)N/N=C1/C(=O)N(c2cc(Cl)ccc2Cl)C(=O)C(=O)C1c1nc2ccccc2s1 (configuration not stated) | inactive: > 100 µM
18 | COP1(=O)CC2C(Cl)(Cl)C2(C)C1 (configuration not stated) | inactive: > 100 µM
19 | COc1ccc(-c2onc(-c3ccc([N+](=O)[O-])cc3)c2C2=NCCN2)cc1 | inactive: 36.6 µM
20 | CC(=O)NC(Cc1ccccc1)NC(=O)O (configuration not stated) | inactive: > 100 µM
21 | CC12CC3OC(=O)C1COC14OC5(C2C1=O)C(O)(CCC1C4CC2OC24CC=CC(=O)C14C)C(=O)OC35C (configuration not stated) | inactive: 30.5 µM
22 | COc1ccc(CC2=NCCc3cc(OC)c(OC)cc32)cc1Br | inactive: 12.7 µM
23 | COc1ccc(C2C3CCc4ccccc4C3=NN2S(=O)(=O)c2ccc(Cl)cc2)cc1 (configuration not stated) | inactive: 72.8 µM

Row | SMILES | GI50
24 | COc1cc(/C=C2\C(=O)N(c3cccc(NC(C)=O)c3)C(c3ccccc3)S2(=O)=O)cc(OC)c1OC (configuration not stated) | inactive: > 100 µM
25 | O=C(OC[C@H]1C[C@H]2C(=O)CCC[C@H]2O1)c1ccccc1 | inactive: > 100 µM
26 | COC(=N)CCCl | inactive: > 100 µM
27 | Nc1cc(CO)cc(Nc2c3ccccc3nc3occc23)c1 | inactive: > 100 µM
28 | O=c1[nH]c2ccccc2c2oc(-c3ccccc3)nc12 | inactive: 23.9 µM
29 | COC(=O)C1Cc2c(n(C)c3ccccc23)C(CCC(=O)O)N1Cc1ccccc1 (configuration not stated) | inactive: 35.3 µM
30 | Oc1c2c(c(O)c3ccccc13)C1(N=N2)c2ccccc2Oc2ccccc21 | inactive: 14.3 µM
31 | CC1(C)CC(=O)c2c(nc3c(ccc4ccccc43)c2-c2ccc(NC(=O)CCCCCCCCC(=O)Nc3ccc(-c4c5c(nc6c4ccc4ccccc46)CC(C)(C)CC5=O)cc3)cc2)C1 | inactive: > 100 µM
32 | Nc1ccc(CCN2CCN(c3cccc(C(F)(F)F)c3)CC2)cc1 | inactive: 39.4 µM
33 | CC1=NN(C(=O)c2ccncc2)C(=O)C1/N=N/c1ccc2ccccc2c1 (configuration not stated) | inactive: > 100 µM
34 | CCC(=O)NI1OC(=O)c2ccccc21 | inactive: > 100 µM
35 | CCCCc1c2c(nc3c1CCCC3=O)C(=O)CCC2 | inactive: > 100 µM
36 | CCCC(=O)n1[nH]c(=O)n(-c2ccc(Cl)cc2)c1=O | inactive: > 100 µM
37 | COC(=O)CCC(=O)NC1=C(Nc2ccccc2)C(=O)c2ccccc2C1=O | inactive: 17.5 µM
38 | O=C(O)COc1ccccc1C(=O)Nc1ccccc1 | inactive: > 100 µM
39 | O=C(NNc1ccc([N+](=O)[O-])cc1[N+](=O)[O-])/C(O)=C\C(=O)c1ccccc1 | inactive: 23.6 µM
40 | CC(C(O)c1ccccc1)[N+](=O)[O-] (configuration not stated) | inactive: 44.1 µM
41 | CN(C)CCCNc1ccnc2cccc([N+](=O)[O-])c12 | inactive: 15.7 µM
42 | N#Cc1sc2c(c1OC(=O)c1cccs1)c(=O)n(-c1ccccc1)c(=S)n2-c1ccccc1 | inactive: 33 µM
43 | Clc1ccc(OCC2NC3CCC2CC3)cn1 (configuration not stated) | inactive: 35.3 µM
44 | COc1cc(C(C)=O)cc(C(=O)N(C(C)C)C(C)C)c1[Si](C)(C)C | inactive: > 100 µM
45 | O=C1c2ccccc2S[C@@H](O)[C@@H]2CCCN12 | inactive: > 100 µM
46 | C=CCn1c(-c2ccc([N+](=O)[O-])cc2)cs/c1=N\C(P(=O)(O)O)P(=O)(O)O | inactive: > 100 µM

Row | SMILES | GI50
47 | O=C1CSC(=S)N1c1ccco1 | inactive: > 100 µM
48 | Cc1cc(NS(=O)(=O)c2ccc(NC(=O)c3cccc4c(Nc5ccc(S(=O)(=O)N=C(N)N)cc5)c5ccccc5nc34)cc2)no1 | inactive: > 100 µM
49 | CC1OC2(CC(OCc3ccccc3)C1OCc1ccccc1)OCCO2 (configuration not stated) | inactive: > 100 µM
50 | CCCCCCCCCCCCNC(=S)OC | inactive: 27 µM
51 | CNC(=O)c1ccc(C(=O)NCCCCCN(O)C(=O)CCC(=O)NCCCCCN(O)C(=O)CCC(=O)NCCCCCN(O)C(C)=O)c(O)c1O | inactive: 14.3 µM
52 | C=C1C(=O)O[C@@]23C1CC[C@@H](C)C2CC[C@@]1(C)OC31 (some centres not stated) | inactive: 17.6 µM
53 | Oc1nncc2[nH]c(-c3ccccc3)cc12 | inactive: > 100 µM
54 | Cc1c2c(c(C)c3c4c(oc13)CCCC4)C=NCC2 | inactive: 13.6 µM
55 | COCCOCCOCCOc1cccc2c1C(=O)c1cccc(OCCOCCOCCOC)c1C2=O | inactive: > 100 µM
56 | c1ccc(-c2cc(C3CO3)c3ccccc3n2)cc1 (configuration not stated) | inactive: 18.7 µM
57 | COc1cc([C@@H]2c3cc4c(cc3[C@H](OC3OC5COC(C(C)C)OC5C(O)C3O)C3COC(=O)[C@@H]32)OCO4)cc(OC)c1OC (some centres not stated) | inactive: 4.02 µM
58 | COc1ccc(-c2cn3c(nc4ccccc43)c(C)n2)cc1 | inactive: 41.8 µM
59 | C[n+]1ccn2c3nc4ccccc4nc3c([O-])c(C#N)c21 | inactive: > 100 µM
60 | CC1=C(O)C(=O)c2cn(C)cc2C1=O | inactive: > 100 µM
61 | O=C1C=C(Br)c2c(-c3ccccc3)oc3cccc1c23 | inactive: > 100 µM
62 | N[C@]1(C(=O)O)C[C@@H]2C(Br)=NO[C@@H]2C1 | inactive: > 100 µM
63 | Nc1nc(=O)n(C2OC(CO)C(O)C2O)c2ncc(-c3ccc(-c4ccccc4)cc3)nc12 (configuration not stated) | inactive: 29.5 µM
64 | O=C(NC/C=C/Br)NC1CCNc2ccccc21 (configuration not stated) | inactive: 51.3 µM
65 | CN(C)c1ccc(C(Cc2ccccc2)C2NC(=S)NC2=O)cc1 (configuration not stated) | inactive: > 100 µM
66 | CC(=O)c1ccc(-c2ccc(C(C)=O)s2)s1 | inactive: > 100 µM
67 | CC1=C(C(=O)NC(C)(C)C)CC(C(=O)NC(C)(C)C)C(C)N1 (configuration not stated) | inactive: > 100 µM
68 | COc1ccc(/N=N/C(=O)NC(CC(C)C)C(=O)NC(C)C(=O)O)cc1 (configuration not stated) | inactive: > 60.3 µM
69 | CCCCC1=CC1(C#N)[N+](=O)[O-] (configuration not stated) | inactive: 98.9 µM

Row | SMILES | GI50
70 | CCOc1ccccc1NC(=O)/C=C1\NC(=O)CS1 | inactive: > 100 µM
71 | Nc1nc(Cl)cc(NCCC2(CO)CCC2)n1 | inactive: > 100 µM
72 | Cc1nc2cc([N+](=O)[O-])ccc2c(NCCCN(C)C)c1C | inactive: 5.62 µM
73 | CCOc1ccc2nc(NC(=O)c3c/c(=N\NC(=O)C[N+](C)(C)C)c4ccc(O)cc4o3)sc2c1 | inactive: 10.5 µM
74 | CC1(C)OC(=S)N(c2ccccc2)C12C=Cc1ccccc1O2 (configuration not stated) | inactive: > 100 µM
75 | O=C(CSc1nccc(=O)[nH]1)c1ccccc1 | inactive: 50.6 µM
76 | COc1ccc(N2C(=O)C3c4[nH]c5ccc(OC)cc5c4C4CCC(c5ccccc5)CC4C3C2=O)cc1 (configuration not stated) | inactive: > 60.7 µM
77 | CCCCCCCCCCCCOP(=O)(O)OP(=O)(O)OCC1OC(n2cc(C)c(=O)[nH]c2=O)CC1O (configuration not stated) | inactive: > 100 µM
78 | S=C(S)N1CCN(c2ccccc2)CC1 | inactive: > 100 µM
79 | C/C(=N\Nc1nc2ccccc2o1)c1ccncn1 | active: 0.253 µM
80 | CC[C@H](C)[C@H]1NC(=O)[C@@H](NC(=O)[C@@H](CC(C)C)N(C)C(=O)C2CCCN2C(=O)[C@H](C)O)[C@@H](C)OC(=O)[C@H](Cc2ccccc2)N(C)C(=O)[C@@H]2CCCN2C(=O)[C@H](CC(C)C)NC(=O)[C@@H](C)C(=O)[C@H](C(C)C)OC(=O)C[C@@H]1O (some centres not stated) | active: < 0.00625 µM
81 | COC(=O)C1OC2(CCCC3CC32)O[C@H]1C(=O)OC (some centres not stated) | inactive: 76.6 µM
82 | O=[N+]([O-])C(=C/c1cccc2ccccc12)/C(=C\c1cccc2ccccc12)[N+](=O)[O-] | inactive: 9.25 µM
83 | O=C1CCCCC/C1=C\c1cccc(Cl)c1 | inactive: > 100 µM
84 | OCc1cccc(Nc2nc(O)c3[nH]cnc3n2)c1 | inactive: > 100 µM
85 | NC(Cc1ccccc1CP(=O)(O)O)C(=O)O (configuration not stated) | inactive: > 100 µM
86 | O=c1c(C(c2ccc3c(c2)Cc2ccccc2-3)c2c(O)oc3ccccc3c2=O)c(O)oc2ccccc12 | inactive: 39 µM
87 | CC12CCC(=O)N1c1ccc([N+](=O)[O-])cc1N2 (configuration not stated) | inactive: > 100 µM
88 | Nc1nc(-c2ccccc2)nc2c1[n+]([O-])c1ccccc1[n+]2[O-] | inactive: > 100 µM
89 | O=CC12c3ccccc3C(c3ccccc31)C1C(=O)NC(=O)C12 (configuration not stated) | inactive: > 100 µM
90 | CCc1nc(N)nc(N)c1-c1ccc(Cl)c(/N=C/N(C)C)c1 | inactive: 56.5 µM
91 | COc1ccc(C(=O)c2sc(Nc3ccc(Cl)cc3)nc2N)cc1 | inactive: 15.3 µM
92 | Cc1ccc2c(O)cc(-c3ccccc3)nc2n1 | active: 0.618 µM
